# The supplement of paper PMC8728848
# The list shows a part of the results.
# B1: SP8524D-bot-399-27-399 (Bacteroides ovatus) (protein)
# chain: DAKYDTLDTHAYIEEALSSTSQKVTVQATGESFTTLNVHLSNLSSTDNHYKLVTDQSVLDTYNHINGTGYIMLPKDYYTLPETITVKAGQYAADALSIALKAFSQEMMKSGESYALPVKLVLQDGSISPMENTGTFVILAESIIEFSAPMFVGAPSLKANKFTESPETYSQYTIEVRFQVANTADRDRAVFKNGGDDANFILLRFEDPQSDNENYKAHSLVQIVGRNRLYLNPSNSFKPNEWQHLALVCDGSNYRLYINGVDSGVLSIPTGATTFSDVNWFCLGDDSYSRWGNCKILMSEARIWSVVRSASQIQNNMTQVSPKSVGLEAYWRFNEGQGNVFEDATGKGHTLTTSATPTWIDGILSTDKSTEWK
# Columns and labels:
# Assay in all cases: glycan array binding signal (z-score within array); higher = stronger binding
# Conditions in all cases: glycan notation: IUPAC condensed, linker removed
# [1] = molecular target: GlcNAc(b1-2)Gal(b1-3)GalNAc
# In short: (§1)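 Arrays were curated from the Consortium for Functional Glycomics database, 3228 in total, and kept only where the protein sequence was available. Binding is expressed as a within-array Z-score. This score was averaged across arrays of the same protein sequence at different concentrations or buffers and across linkers, and negative values can be read as non-binding.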
# [2] = molecular target: GlcNAc(b1-2)Man(a1-3)[GlcNAc(b1-2)Man(a1-6)]Man(b1-4)GlcNAc(b1-4)GlcNAc
# In short: as §1
# [3] = molecular target: GlcNAc(b1-2)Man(a1-3)[GlcNAc(b1-2)Man(a1-6)]Man(b1-4)GlcNAc(b1-4)[Fuc(a1-6)]GlcNAc
# In short: as §1
# [4] = molecular target: GlcNAc(b1-2)Man(a1-3)[GlcNAc(b1-4)][GlcNAc(b1-2)Man(a1-6)]Man(b1-4)GlcNAc(b1-4)GlcNAc
# In short: as §1
# [5] = molecular target: GlcNAc(b1-2)Man(a1-3)[GlcNAc(b1-4)][GlcNAc(b1-2)Man(a1-6)]Man(b1-4)GlcNAc(b1-4)[Fuc(a1-6)]GlcNAc
# In short: as §1
# [6] = molecular target: GlcNAc(b1-2)[GlcNAc(b1-4)]Man(a1-3)[GlcNAc(b1-2)Man(a1-6)]Man(b1-4)GlcNAc(b1-4)GlcNAc
# In short: as §1
# [7] = molecular target: GlcNAc(b1-2)[GlcNAc(b1-4)]Man(a1-3)[GlcNAc(b1-4)][GlcNAc(b1-2)Man(a1-6)]Man(b1-4)GlcNAc(b1-4)GlcNAc
# In short: as §1
# [8] = molecular target: GlcNAc(b1-2)[GlcNAc(b1-4)]Man(a1-3)[GlcNAc(b1-4)][GlcNAc(b1-2)[GlcNAc(b1-6)]Man(a1-6)]Man(b1-4)GlcNAc(b1-4)GlcNAc
# In short: as §1
# [9] = molecular target: GlcNAc(b1-2)[GlcNAc(b1-4)]Man(a1-3)[GlcNAc(b1-4)][GlcNAc(b1-2)[GlcNAc(b1-6)]Man(a1-6)]Man(b1-4)GlcNAc(b1-4)[Fuc(a1-6)]GlcNAc
# In short: as §1
# [10] = molecular target: GlcNAc(b1-2)[GlcNAc(b1-6)]Man(a1-6)[GlcNAc(b1-2)Man(a1-3)]Man(b1-4)GlcNAc(b1-4)GlcNAc
# In short: as §1
# [11] = molecular target: GlcNAc(b1-2)[GlcNAc(b1-6)]Man(a1-6)[GlcNAc(b1-2)Man(a1-3)]Man(b1-4)GlcNAc(b1-4)[Fuc(a1-6)]GlcNAc
# In short: as §1
# [12] = molecular target: GlcNAc(b1-2)[GlcNAc(b1-6)]Man(a1-6)[GlcNAc(b1-4)][GlcNAc(b1-2)Man(a1-3)]Man(b1-4)GlcNAc(b1-4)GlcNAc
# In short: as §1
# [13] = molecular target: GlcNAc(b1-3)Fuc
# In short: as §1
# [14] = molecular target: GlcNAc(b1-3)Gal
# In short: as §1
# [15] = molecular target: GlcNAc(b1-3)Gal(b1-3)GalNAc
# In short: as §1
# [16] = molecular target: GlcNAc(b1-3)Gal(b1-4)Glc
# In short: as §1
# [17] = molecular target: GlcNAc(b1-3)Gal(b1-4)GlcNAc
# In short: as §1
# [18] = molecular target: GlcNAc(b1-3)Gal(b1-4)GlcNAc(b1-2)Man(a1-3)[GlcNAc(b1-3)Gal(b1-4)GlcNAc(b1-2)Man(a1-6)]Man(b1-4)GlcNAc(b1-4)GlcNAc
# In short: as §1
# [19] = molecular target: GlcNAc(b1-3)Gal(b1-4)GlcNAc(b1-2)Man(a1-3)[GlcNAc(b1-3)Gal(b1-4)GlcNAc(b1-2)Man(a1-6)]Man(b1-4)GlcNAc(b1-4)[Fuc(a1-6)]GlcNAc
# In short: as §1
# [20] = molecular target: GlcNAc(b1-3)Gal(b1-4)GlcNAc(b1-2)[GlcNAc(b1-3)Gal(b1-4)GlcNAc(b1-6)]Man(a1-6)[GlcNAc(b1-3)Gal(b1-4)GlcNAc(b1-2)Man(a1-3)]Man(b1-4)GlcNAc(b1-4)GlcNAc
# In short: as §1
# [21] = molecular target: GlcNAc(b1-3)Gal(b1-4)GlcNAc(b1-3)Gal(b1-4)GlcNAc
# In short: as §1
# [22] = molecular target: GlcNAc(b1-3)Gal(b1-4)GlcNAc(b1-3)Gal(b1-4)GlcNAc(b1-2)Man(a1-3)[GlcNAc(b1-3)Gal(b1-4)GlcNAc(b1-3)Gal(b1-4)GlcNAc(b1-2)Man(a1-6)]Man(b1-4)GlcNAc(b1-4)GlcNAc
# In short: as §1
# [23] = molecular target: GlcNAc(b1-3)Gal(b1-4)GlcNAc(b1-3)Gal(b1-4)GlcNAc(b1-2)Man(a1-3)[GlcNAc(b1-3)Gal(b1-4)GlcNAc(b1-3)Gal(b1-4)GlcNAc(b1-2)Man(a1-6)]Man(b1-4)GlcNAc(b1-4)[Fuc(a1-6)]GlcNAc
# In short: as §1
# [24] = molecular target: GlcNAc(b1-3)Gal(b1-4)GlcNAc(b1-3)Gal(b1-4)GlcNAc(b1-2)[GlcNAc(b1-3)Gal(b1-4)GlcNAc(b1-3)Gal(b1-4)GlcNAc(b1-6)]Man(a1-6)[GlcNAc(b1-3)Gal(b1-4)GlcNAc(b1-3)Gal(b1-4)GlcNAc(b1-2)Man(a1-3)]Man(b1-4)GlcNAc(b1-4)[Fuc(a1-6)]GlcNAc
# In short: as §1
# [25] = molecular target: GlcNAc(b1-3)Gal(b1-4)GlcNAc(b1-3)Gal(b1-4)GlcNAc(b1-3)Gal(b1-4)GlcNAc(b1-2)Man(a1-3)[GlcNAc(b1-3)Gal(b1-4)GlcNAc(b1-3)Gal(b1-4)GlcNAc(b1-3)Gal(b1-4)GlcNAc(b1-2)Man(a1-6)]Man(b1-4)GlcNAc(b1-4)GlcNAc
# In short: as §1
# [26] = molecular target: GlcNAc(b1-3)Gal(b1-4)GlcNAc(b1-3)Gal(b1-4)GlcNAc(b1-3)Gal(b1-4)GlcNAc(b1-2)Man(a1-3)[GlcNAc(b1-3)Gal(b1-4)GlcNAc(b1-3)Gal(b1-4)GlcNAc(b1-3)Gal(b1-4)GlcNAc(b1-2)Man(a1-6)]Man(b1-4)GlcNAc(b1-4)[Fuc(a1-6)]GlcNAc
# In short: as §1
# [27] = molecular target: GlcNAc(b1-3)Gal(b1-4)GlcNAc(b1-3)Gal(b1-4)GlcNAc(b1-3)Gal(b1-4)GlcNAc(b1-2)[GlcNAc(b1-3)Gal(b1-4)GlcNAc(b1-3)Gal(b1-4)GlcNAc(b1-3)Gal(b1-4)GlcNAc(b1-6)]Man(a1-6)[GlcNAc(b1-3)Gal(b1-4)GlcNAc(b1-3)Gal(b1-4)GlcNAc(b1-3)Gal(b1-4)GlcNAc(b1-2)Man(a1-3)]Man(b1-4)GlcNAc(b1-4)[Fuc(a1-6)]GlcNAc
# In short: as §1
# [28] = molecular target: GlcNAc(b1-3)Gal(b1-4)GlcNAc(b1-3)Gal(b1-4)GlcNAc(b1-3)Gal(b1-4)GlcNAc(b1-3)Gal(b1-4)GlcNAc(b1-2)Man(a1-3)[GlcNAc(b1-3)Gal(b1-4)GlcNAc(b1-3)Gal(b1-4)GlcNAc(b1-3)Gal(b1-4)GlcNAc(b1-3)Gal(b1-4)GlcNAc(b1-2)Man(a1-6)]Man(b1-4)GlcNAc(b1-4)GlcNAc
# In short: as §1
# [29] = molecular target: GlcNAc(b1-3)Gal(b1-4)GlcNAc(b1-3)Gal(b1-4)GlcNAc(b1-3)Gal(b1-4)GlcNAc(b1-3)Gal(b1-4)GlcNAc(b1-2)Man(a1-3)[GlcNAc(b1-3)Gal(b1-4)GlcNAc(b1-3)Gal(b1-4)GlcNAc(b1-3)Gal(b1-4)GlcNAc(b1-3)Gal(b1-4)GlcNAc(b1-2)Man(a1-6)]Man(b1-4)GlcNAc(b1-4)[Fuc(a1-6)]GlcNAc
# In short: as §1
# [30] = molecular target: GlcNAc(b1-3)Gal(b1-4)GlcNAc(b1-3)Gal(b1-4)GlcNAc(b1-3)Gal(b1-4)GlcNAc(b1-3)Gal(b1-4)GlcNAc(b1-2)[GlcNAc(b1-3)Gal(b1-4)GlcNAc(b1-3)Gal(b1-4)GlcNAc(b1-3)Gal(b1-4)GlcNAc(b1-3)Gal(b1-4)GlcNAc(b1-6)]Man(a1-6)[GlcNAc(b1-3)Gal(b1-4)GlcNAc(b1-3)Gal(b1-4)GlcNAc(b1-3)Gal(b1-4)GlcNAc(b1-3)Gal(b1-4)GlcNAc(b1-2)Man(a1-3)]Man(b1-4)GlcNAc(b1-4)[Fuc(a1-6)]GlcNAc
# In short: as §1
# [31] = molecular target: GlcNAc(b1-3)Gal(b1-4)GlcNAc(b1-3)Gal(b1-4)GlcNAc(b1-3)GalNAc
# In short: as §1
# [32] = molecular target: GlcNAc(b1-3)Gal(b1-4)GlcNAc(b1-3)GalNAc
# In short: as §1
# [33] = molecular target: GlcNAc(b1-3)Gal(b1-4)GlcNAc(b1-3)[GlcNAc(b1-3)Gal(b1-4)GlcNAc(b1-3)]GalNAc
# In short: as §1
# [34] = molecular target: GlcNAc(b1-3)Gal(b1-4)GlcNAc(b1-6)[Gal(b1-3)]GalNAc
# In short: as §1
# [35] = molecular target: GlcNAc(b1-3)Gal(b1-4)GlcNAc(b1-6)[GlcNAc(b1-3)Gal(b1-3)]GalNAc
# In short: as §1
# [36] = molecular target: GlcNAc(b1-3)Gal(b1-4)GlcNAc(b1-6)[GlcNAc(b1-3)]Gal(b1-4)GlcNAc
# In short: as §1
# [37] = molecular target: GlcNAc(b1-3)GalNAc
# In short: as §1
binder,measurement,setting,value
B1,glycan array binding signal (z-score),[1],-0.56
same,glycan array binding signal (z-score),[2],-0.165
same,glycan array binding signal (z-score),[3],0.109
same,glycan array binding signal (z-score),[4],0
same,glycan array binding signal (z-score),[5],0.139
same,glycan array binding signal (z-score),[6],16.1
same,glycan array binding signal (z-score),[7],8.43
same,glycan array binding signal (z-score),[8],12.1
same,glycan array binding signal (z-score),[9],2.04
same,glycan array binding signal (z-score),[10],-0.45
same,glycan array binding signal (z-score),[11],0.191
same,glycan array binding signal (z-score),[12],-0.44
same,glycan array binding signal (z-score),[13],-0.355
same,glycan array binding signal (z-score),[14],-0.342
same,glycan array binding signal (z-score),[15],-0.242
same,glycan array binding signal (z-score),[16],-0.651
same,glycan array binding signal (z-score),[17],-0.287
same,glycan array binding signal (z-score),[18],-0.285
same,glycan array binding signal (z-score),[19],0.361
same,glycan array binding signal (z-score),[20],0.455
same,glycan array binding signal (z-score),[21],-0.359
same,glycan array binding signal (z-score),[22],0.337
same,glycan array binding signal (z-score),[23],0.563
same,glycan array binding signal (z-score),[24],1.11
same,glycan array binding signal (z-score),[25],-0.027
same,glycan array binding signal (z-score),[26],0.341
same,glycan array binding signal (z-score),[27],0.446
same,glycan array binding signal (z-score),[28],0.241
same,glycan array binding signal (z-score),[29],0.473
same,glycan array binding signal (z-score),[30],0.013
same,glycan array binding signal (z-score),[31],0.147
same,glycan array binding signal (z-score),[32],-0.271
same,glycan array binding signal (z-score),[33],-0.049
same,glycan array binding signal (z-score),[34],-0.128
same,glycan array binding signal (z-score),[35],-0.404
same,glycan array binding signal (z-score),[36],-0.127
same,glycan array binding signal (z-score),[37],-0.115
